# According to the supplement of paper PMC4604168 (melanoma cell lines):
# The list shows a part of the results. Repeats are few or missing, and single values can be far off.
# Test system: MeWo
# Assay: cell count relative to DMSO control; melanoma cells; higher = more viable cells
# Conditions: library dose: standard library concentration; 72 h
# 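Also: cells treated in 1,536-well plates, then fixed and DAPI-stained, with nuclei counted from automated high-throughput microscope images.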
row,Compound,cell count [%]
1,"Cn1cc(/C=C2\C(=O)Nc3cccnc32)c2ccccc21 + CCCCCCCCCCCC1=C(O)C(=O)C=C(O)C1=O [Embelin] (first compound 2 µM, partner dose 6 µM)",107
2,"COc1ccc2c(c1)CCC1C2CCC2(C)C(NCCCCCCN3C(=O)C=CC3=O)CCC12 (centres undefined) + CCCCCCCCCCCC1=C(O)C(=O)C=C(O)C1=O [Embelin] (first compound 2 µM, partner dose 6 µM)",77.3
3,"COc1cc2ncnc(Nc3ccc(Oc4ccccc4)cc3)c2cc1OC + Cn1cc(/C=C2\C(=O)Nc3cccnc32)c2ccccc21 [GW441756] (first compound 10 µM, partner dose 2 µM)",69.9
4,"Cc1cc([N+](=O)[O-])ccc1NS(=O)(=O)c1cc(Cl)ccc1Cl + COc1cc(N2CCC(N3CCN(C)CC3)CC2)ccc1Nc1ncc(Cl)c(Nc2ccccc2S(=O)(=O)C(C)C)n1 [NVP-TAE684] (first compound 5 µM, partner dose 0.4 µM)",74.1
5,"N#Cc1c(O)c2c(-c3ccc(-c4ccccc4O)cc3)csc2[nH]c1=O + COc1cc(N2CCC(N3CCN(C)CC3)CC2)ccc1Nc1ncc(Cl)c(Nc2ccccc2S(=O)(=O)C(C)C)n1 [NVP-TAE684] (first compound 10 µM, partner dose 0.4 µM)",83.7
6,"O=S(=O)(c1ccccc1)N(CC(F)(F)F)c1ccc(C(O)(C(F)(F)F)C(F)(F)F)cc1 + Cc1cc([N+](=O)[O-])ccc1NS(=O)(=O)c1cc(Cl)ccc1Cl [FH535] (first compound 7 µM, partner dose 5 µM)",68.5
7,"COc1ccc(-c2ccc3c(N4CCOCC4)nc(N4C[C@@H](C)O[C@@H](C)C4)nc3n2)cc1CO + Oc1nc(-c2ccc(C(F)(F)F)cc2)nc2c1CSCC2 [XAV939] (first compound 0.1 µM, partner dose 10 µM)",77.4
8,"COc1ccc(-c2ccc3c(N4CCOCC4)nc(N4C[C@@H](C)O[C@@H](C)C4)nc3n2)cc1CO + O=C1NC(=O)/C(=C/c2ccc(-c3ccc(F)cc3O)o2)S1 [AS252424] (first compound 0.1 µM, partner dose 5 µM)",80.3
9,"COC(=O)c1sccc1S(=O)(=O)Nc1ccc(Nc2ccccc2)cc1OC + Cc1cc([N+](=O)[O-])ccc1NS(=O)(=O)c1cc(Cl)ccc1Cl [FH535] (first compound 5 µM, partner dose 5 µM)",81.1
10,"CCN(CC)CCCCNc1ncc2cc(-c3cc(OC)cc(OC)c3)c(NC(=O)NC(C)(C)C)nc2n1 + Cn1cc(/C=C2\C(=O)Nc3cccnc32)c2ccccc21 [GW441756] (first compound 0.5 µM, partner dose 2 µM)",94.7
11,"CCN(CC)CCCCNc1ncc2cc(-c3cc(OC)cc(OC)c3)c(NC(=O)NC(C)(C)C)nc2n1 + c1cc(-c2cnn3cc(-c4ccc(OCCN5CCCCC5)cc4)cnc23)ccn1 [Dorsomorphin] (first compound 0.5 µM, partner dose 2 µM)",55.6
12,"CCN(CC)CCCCNc1ncc2cc(-c3cc(OC)cc(OC)c3)c(NC(=O)NC(C)(C)C)nc2n1 + O=C(O)C(=O)Nc1sc2c(c1C(=O)O)CCNC2 [TCS401] (first compound 0.5 µM, partner dose 8.33333 µM)",103
13,"COc1ccc(COc2ccc(Cc3cnc(N)nc3N)cc2OC)cc1 + O=S(=O)(c1ccccc1)N(CC(F)(F)F)c1ccc(C(O)(C(F)(F)F)C(F)(F)F)cc1 [T0901317] (first compound 5 µM, partner dose 7 µM)",71.2
14,"O=S(=O)(c1ccccc1)N(CC(F)(F)F)c1ccc(C(O)(C(F)(F)F)C(F)(F)F)cc1 + Cn1cc(/C=C2\C(=O)Nc3cccnc32)c2ccccc21 [GW441756] (first compound 7 µM, partner dose 2 µM)",107
15,"Cn1cc(/C=C2\C(=O)Nc3cccnc32)c2ccccc21 + CC(C)CCN1c2nc(Nc3cc(F)c(O)c(F)c3)ncc2N(C)C(=O)C1C [BID1870] (first compound 2 µM, partner dose 1 µM)",73.8
16,"COC(=O)c1sccc1S(=O)(=O)Nc1ccc(Nc2ccccc2)cc1OC + COc1cc2ncnc(Nc3ccc(Oc4ccccc4)cc3)c2cc1OC [SrcI1] (first compound 5 µM, partner dose 10 µM)",71.5
17,"O=S(=O)(c1ccccc1)N(CC(F)(F)F)c1ccc(C(O)(C(F)(F)F)C(F)(F)F)cc1 + CCCCCCCCCCCC1=C(O)C(=O)C=C(O)C1=O [Embelin] (first compound 7 µM, partner dose 6 µM)",89

row,Compound,cell count [%]
1,"N#Cc1c(O)c2c(-c3ccc(-c4ccccc4O)cc3)csc2[nH]c1=O + COc1ccc(-c2ccc3c(N4CCOCC4)nc(N4C[C@@H](C)O[C@@H](C)C4)nc3n2)cc1CO [KU0063794] (first compound 10 µM, partner dose 0.1 µM)",89.6
2,"COc1ccc2c(c1)CCC1C2CCC2(C)C(NCCCCCCN3C(=O)C=CC3=O)CCC12 (centres undefined) + CC(C)CCN1c2nc(Nc3cc(F)c(O)c(F)c3)ncc2N(C)C(=O)C1C [BID1870] (first compound 2 µM, partner dose 1 µM)",54.1
3,"Oc1cc(-c2nc(-c3ccccc3)[nH]c2-c2ccncc2)ccc1Cl + O=C1NC(=O)/C(=C/c2ccc(-c3ccc(F)cc3O)o2)S1 [AS252424] (first compound 1 µM, partner dose 5 µM)",72.8
4,"COc1ccc2c(c1)CCC1C2CCC2(C)C(NCCCCCCN3C(=O)C=CC3=O)CCC12 (centres undefined) + c1cc(-c2cnn3cc(-c4ccc(OCCN5CCCCC5)cc4)cnc23)ccn1 [Dorsomorphin] (first compound 2 µM, partner dose 2 µM)",59.3
5,"Cn1cc(/C=C2\C(=O)Nc3cccnc32)c2ccccc21 + O=c1cc(-c2cccc3c2Sc2ccccc2S3)oc(N2CCOCC2)c1 [KU55933] (first compound 2 µM, partner dose 5 µM)",99.3
6,"O=S(=O)(c1ccccc1)N(CC(F)(F)F)c1ccc(C(O)(C(F)(F)F)C(F)(F)F)cc1 + O=c1cc(-c2cccc3c2Sc2ccccc2S3)oc(N2CCOCC2)c1 [KU55933] (first compound 7 µM, partner dose 5 µM)",89.6
7,"COc1ccc(COc2ccc(Cc3cnc(N)nc3N)cc2OC)cc1 + Oc1cc(-c2nc(-c3ccccc3)[nH]c2-c2ccncc2)ccc1Cl [L779450] (first compound 5 µM, partner dose 1 µM)",75.3
8,"N#Cc1c(O)c2c(-c3ccc(-c4ccccc4O)cc3)csc2[nH]c1=O + c1cc(-c2cnn3cc(-c4ccc(OCCN5CCCCC5)cc4)cnc23)ccn1 [Dorsomorphin] (first compound 10 µM, partner dose 2 µM)",84.3
9,"Oc1nc(-c2ccc(C(F)(F)F)cc2)nc2c1CSCC2 + COc1cc(N2CCC(N3CCN(C)CC3)CC2)ccc1Nc1ncc(Cl)c(Nc2ccccc2S(=O)(=O)C(C)C)n1 [NVP-TAE684] (first compound 10 µM, partner dose 0.4 µM)",69.3
10,"COc1ccc(-c2ccc3c(N4CCOCC4)nc(N4C[C@@H](C)O[C@@H](C)C4)nc3n2)cc1CO + O=S(=O)(c1ccccc1)N(CC(F)(F)F)c1ccc(C(O)(C(F)(F)F)C(F)(F)F)cc1 [T0901317] (first compound 0.1 µM, partner dose 7 µM)",75.4
11,"COc1ccc(COc2ccc(Cc3cnc(N)nc3N)cc2OC)cc1 + CC(C)CCN1c2nc(Nc3cc(F)c(O)c(F)c3)ncc2N(C)C(=O)C1C [BID1870] (first compound 5 µM, partner dose 1 µM)",76.7
12,"c1cc(-c2cnn3cc(-c4ccc(OCCN5CCCCC5)cc4)cnc23)ccn1 [Dorsomorphin] + CC(C)CCN1c2nc(Nc3cc(F)c(O)c(F)c3)ncc2N(C)C(=O)C1C [BID1870] (first compound 2 µM, partner dose 1 µM)",65.2
13,"N#Cc1c(O)c2c(-c3ccc(-c4ccccc4O)cc3)csc2[nH]c1=O + O=c1cc(-c2cccc3c2Sc2ccccc2S3)oc(N2CCOCC2)c1 [KU55933] (first compound 10 µM, partner dose 5 µM)",91.2
14,"N#Cc1c(O)c2c(-c3ccc(-c4ccccc4O)cc3)csc2[nH]c1=O + CCN(CC)CCCCNc1ncc2cc(-c3cc(OC)cc(OC)c3)c(NC(=O)NC(C)(C)C)nc2n1 [PD173074] (first compound 10 µM, partner dose 0.5 µM)",91.1
15,"Oc1cc(-c2nc(-c3ccccc3)[nH]c2-c2ccncc2)ccc1Cl + Oc1nc(-c2ccc(C(F)(F)F)cc2)nc2c1CSCC2 [XAV939] (first compound 1 µM, partner dose 10 µM)",82.3
16,"O=S(=O)(c1ccccc1)N(CC(F)(F)F)c1ccc(C(O)(C(F)(F)F)C(F)(F)F)cc1 + Oc1cc(-c2nc(-c3ccccc3)[nH]c2-c2ccncc2)ccc1Cl [L779450] (first compound 7 µM, partner dose 1 µM)",76.9
17,"N#Cc1c(O)c2c(-c3ccc(-c4ccccc4O)cc3)csc2[nH]c1=O + Oc1cc(-c2nc(-c3ccccc3)[nH]c2-c2ccncc2)ccc1Cl [L779450] (first compound 10 µM, partner dose 1 µM)",76.2
